Growth inhibition data for three molecules are collected here from the supplement of paper PMC7266297.

Molecules are shown by their SMILES. The list shows a part of the results. Most values come without repeats; read them as rough.

One experiment has as its system KB-3-1. Put plainly: growth inhibition relative to DMSO control (SRB); cervical cancer cells: KB-3-1 is the parent and KB-V1 overexpresses MDR1; SRB is the sulforhodamine B stain; higher = more growth inhibition. The settings on record: 1 µM; 72 h.
A further experiment deals with KB-V1. The experiment is described as above. To be noted: 1 µM; 72 h.
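Also: Read-out is SRB optical density at 490 nm, with the control being wells given 0.5% DMSO vehicle, and compound added one day after cells were plated.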

Take `N#Cc1ccc2[nH]c(O)c(-c3ccc(CN4CCOCC4)cn3)c2c1`: the growth inhibition in the experiment on KB-3-1 and in the experiment on KB-V1 was less than 0% throughout.
On to `Nc1ccc2ncnc(NCCc3ccc(Oc4ccccc4)cc3)c2c1`, for which the growth inhibition stood at 30.2% in the experiment on KB-3-1 and 65.5% in the experiment with KB-V1.
`CN(C)C(=O)Nc1cccc(-c2ccc(N(C)C)cc2)c1` [Atglistatin]: the growth inhibition in the experiment on KB-3-1 and in the experiment with KB-V1 was less than 0% each time.
